Publication PMC4336329 (PLoS ONE, 2015)
Among all 310,000 compounds or so, about 14,000 (4.5%) showed an effect of 50% or more. Effects have a minus sign here. This is one part of the list.

target: human ether-à-go-go-related gene (hERG) potassium channel (human, UniProt Q12809); experiment: primary screen, population patch clamp on CHO cells stably expressing hERG
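Further: peak tail current of the secondary pulse compared with the same well before compound.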

human ether-à-go-go-related gene (hERG) potassium channel, sequence (Q12809 whole entry, looked up): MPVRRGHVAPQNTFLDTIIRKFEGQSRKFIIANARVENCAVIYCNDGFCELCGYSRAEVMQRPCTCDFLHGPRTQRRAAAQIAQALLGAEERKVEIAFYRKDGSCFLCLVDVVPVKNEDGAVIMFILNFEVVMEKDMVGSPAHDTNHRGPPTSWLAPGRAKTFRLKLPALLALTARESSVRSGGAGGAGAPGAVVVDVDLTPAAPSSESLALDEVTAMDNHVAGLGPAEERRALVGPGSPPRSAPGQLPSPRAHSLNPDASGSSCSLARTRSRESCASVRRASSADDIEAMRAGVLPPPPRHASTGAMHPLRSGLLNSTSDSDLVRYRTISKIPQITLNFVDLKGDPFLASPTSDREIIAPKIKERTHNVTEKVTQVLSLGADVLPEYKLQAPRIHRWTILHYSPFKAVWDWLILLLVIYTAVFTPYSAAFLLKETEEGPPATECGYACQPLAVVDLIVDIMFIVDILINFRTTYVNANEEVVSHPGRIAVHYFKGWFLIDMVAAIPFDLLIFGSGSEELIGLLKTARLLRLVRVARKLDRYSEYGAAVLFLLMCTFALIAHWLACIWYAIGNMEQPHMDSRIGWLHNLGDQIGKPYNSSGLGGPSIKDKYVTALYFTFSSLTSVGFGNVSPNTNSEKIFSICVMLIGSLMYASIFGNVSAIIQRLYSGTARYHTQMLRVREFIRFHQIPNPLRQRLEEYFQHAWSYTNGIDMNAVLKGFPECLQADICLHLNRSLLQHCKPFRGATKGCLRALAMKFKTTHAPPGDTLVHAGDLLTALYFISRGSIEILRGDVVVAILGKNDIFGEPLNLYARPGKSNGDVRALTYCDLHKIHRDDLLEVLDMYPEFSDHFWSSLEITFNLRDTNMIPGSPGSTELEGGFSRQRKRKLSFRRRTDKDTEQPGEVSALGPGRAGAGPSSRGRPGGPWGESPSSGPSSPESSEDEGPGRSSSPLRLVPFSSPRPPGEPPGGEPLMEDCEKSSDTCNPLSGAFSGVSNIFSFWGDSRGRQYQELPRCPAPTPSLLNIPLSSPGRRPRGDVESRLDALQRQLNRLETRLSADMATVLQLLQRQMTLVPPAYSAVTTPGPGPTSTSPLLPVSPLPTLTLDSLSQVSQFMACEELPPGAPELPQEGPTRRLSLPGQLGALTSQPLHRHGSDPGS

Structure (SMILES)	hERG current change (%, negative = inhibition) at 10uM
Cc1ccc(NC(=O)C2CCN(S(=O)(=O)c3c(C)n[nH]c3C)CC2)nc1	-23%
COc1ccc(Cl)cc1-c1nc(SCC(=O)NCCN2C(=O)CSC2=O)n[nH]1	-7.49%
Cc1noc(C)c1C(=O)NCCc1ccc(S(N)(=O)=O)cc1	-23.7%
COc1ccc(N2C(=O)CC(N3CCN(c4ccccc4OC)CC3)C2=O)cc1 (stereo not drawn)	6.7%
Cc1ccccc1N(CC(=O)N/N=C/c1ccc(F)cc1)C(=O)c1ccccc1	-23.4%
CCN(CC)c1ccc(/C=C2\SC(N)=NC2=O)cc1	7.42%
O=C1Nc2ccc([N+](=O)[O-])cc2OC1CCN1CCCC1 (stereo not drawn)	1.7%
c1ccc(N2CCN(c3nnc(Cc4cccnc4)c4ccccc34)CC2)nc1	-50.1%
CCOC(=O)C1CCCN(c2c(NCCN3CCCCC3C)c(=O)c2=O)C1 (stereo not drawn)	5.47%
COc1ccc(S(=O)(=O)NCCCN2CCCC2=O)cc1OC	9.12%
C=CCN1C(=O)/C(=C\c2ccc(N3CCOCC3)o2)C(=O)NC1=S	4.36%
Cc1ccccc1NC(NC(=O)c1cccnc1)C(Cl)(Cl)Cl (stereo not drawn)	-1.3%
CCN1C(=O)/C(=C\N(C)C)S/C1=N\S(=O)(=O)c1ccc(C)cc1	19.3%
CN(NS(=O)(=O)c1ccc(F)cc1)c1ncc(C(F)(F)F)cc1Cl	-14.1%
CC(=O)c1ccc(N2CCN(c3ccc(S(=O)(=O)NCCCN(C)C)cc3[N+](=O)[O-])CC2)cc1	-18.1%
O=C(Cc1ccc(O)cc1)N/N=C/c1cccs1	18.8%
Cc1ccccc1C(=O)N1CCC(C(=O)OCC(=O)Nc2cccc([N+](=O)[O-])c2C)CC1	-24.7%
COc1ccc(CCNC(=O)C(C)OC(=O)c2nsc(Cl)c2Cl)cc1OC (stereo not drawn)	12.4%
O=C(NN(c1ccccc1)c1ccccc1)c1ccccc1F	13.2%
Cl.OCCNCc1cc(Br)ccc1OCc1ccc(F)cc1	-49.7%
CC(CC(=O)NCCc1ccc(F)cc1)c1ccccc1 (stereo not drawn)	-6.32%
CCOc1ccc(-c2nc(-c3ccncc3)no2)cc1OCC	14.2%

Structure (SMILES)	hERG current change (%, negative = inhibition) at 10uM
Cc1nc2sc3c(c2c2nnc(SCC(=O)NCc4ccco4)n12)CCCC3	-28.2%
COc1ccc(N2C(C(C)=O)=NN(c3ccccc3)C2c2cccs2)cc1 (stereo not drawn)	10.5%
Cc1ccc(C)c(NC(=O)[C@@H]2CCCN2S(=O)(=O)c2ccccc2F)c1	10.9%
CNc1ccccc1C(=O)OCC(=O)c1ccc(F)cc1	0.751%
COc1ccccc1-c1cc2nc(C)c(CCC(=O)NC(C)CCc3ccco3)c(C)n2n1 (stereo not drawn)	-62.5%
Cc1ccc(F)cc1NC(=O)Cc1ncc(C(F)(F)F)cc1Cl	7.66%
CC(Oc1ccc(S(=O)(=O)N2CCCC2)cc1[N+](=O)[O-])C(=O)NC(C)c1ccccc1 (stereo not drawn)	-10.2%
CCOc1ncccc1C(=O)OCC(=O)Nc1ccc2c(c1)OCO2	12.6%
NS(=O)(=O)c1ccc(CCNC(=O)CSc2nc3ccsc3c(=O)n2C2CC2)cc1	0.862%
CCOc1cc(CN2CCN(Cc3ccc(C)o3)C(CCO)C2)ccc1OC (stereo not drawn)	-3.33%
CNC(=O)CSc1nc(-c2ccccc2)c(-c2ccccc2)o1	5.63%
COCCC(=O)N1CCC(Oc2ccc(C(=O)NC3CCCCC3)cc2)CC1	-0.0745%
O=C(C1CCC1)N1CCN(S(=O)(=O)c2ccc([N+](=O)[O-])cc2)CC1	-62.6%
Cc1ccc2c(c1)N(C(=O)CCC(=O)NC1CCCCCC1)CCO2	-12.2%
O=C(CSc1nccn1-c1ccccc1)NCc1ccc2c(c1)OCO2	-18.1%
O=C(/C=C/c1ccc(F)cc1)NCc1ccco1	-3.95%
COc1cc([N+](=O)[O-])cc(/C=N/NC(=O)C(C)Nc2cccc(C)c2)c1O (stereo not drawn)	22.7%
CC1CSc2nc3sc4c(c3c(=O)n21)CCCC4 (stereo not drawn)	-6.48%
CCCCC(=O)NC(c1ccc(N(CC)CC)cc1)c1ccc2cccnc2c1O (stereo not drawn)	3.92%
O=C(c1c(F)cccc1F)N1CCCC1	-5.32%
CC1CC(C)CN(C(=O)COC(=O)c2cc3ccccc3cc2O)C1 (stereo not drawn)	-7.65%
CC(=O)N(C1=NCCCS1)c1ccccc1F	-10.6%

Structure (SMILES)	hERG current change (%, negative = inhibition) at 10uM
CCO[C@@H]1OC(C(=O)Nc2ccccc2)=C[C@H](c2ccc(Br)cc2)[C@H]1CCCO	-11.4%
Cc1cccc(Nc2cnn(C34CC5CC(CC(CC(=O)O)(C5)C3)C4)c(=O)c2Cl)c1	-1.35%
COc1ccc(S(=O)(=O)N(C)C)cc1NC(=O)c1ccc(OCC(=O)N2CCOCC2)c(OC)c1	-3.64%
O=C1N=c2ccc(Br)cc2=C1c1sc(=O)[nH]c1O	34.8%
Cc1nonc1NC(=O)c1ccccc1Br	6.95%
NC(=O)C1CCN(c2ccnc3cc(Cl)ccc23)CC1	-51.6%
COc1ccc(N(C(=O)CNC(=O)c2ccco2)C(C(=O)NC2CCCC2)c2ccco2)cc1 (stereo not drawn)	3.39%
CN(CC(=O)Nc1ccc(F)cc1)CC(=O)N1CCCC1	5.03%
CC1CCN(C(=O)COC(=O)Cn2cnc3c2c(=O)n(C)c(=O)n3C)CC1	12.3%
COc1ccc(Br)c(C(=O)N(C)CC(=O)Nc2ccc(N3CCOCC3)cc2)c1	-7.73%
NS(=O)(=O)c1ccc(NC(=O)CSc2nc3ccccc3n2-c2ccccc2)cc1	2.64%
CCCC(=O)N1c2ccccc2C(=C2SC(C(=O)OC)=C(C(=O)OC)S2)C(=S)C1(C)C	-4.77%
O=C(COC(=O)c1cccs1)NCc1ccc2c(c1)OCO2	-11.6%
O=C(NCCc1nc2ccccc2[nH]1)c1cccc(Br)c1	-20.8%
O=C(CSc1ccccn1)Nc1nc2ccc(Br)cc2s1	-1.93%
CCOC(=O)CSc1nc2c(sc(=S)n2-c2ccc(CC)cc2)c(=O)[nH]1	8.67%
CC(=O)N1CCN(S(=O)(=O)c2cccc(C(=O)OCC(=O)NC(=O)c3cccn3C)c2)CC1	6.58%
O=C(c1n[nH]c(=O)c2ccccc12)N1CCN(Cc2ccc3c(c2)OCO3)CC1	2.15%
COc1ccc2cc(C3CC(c4cccs4)=NN3S(C)(=O)=O)c(Cl)nc2c1 (stereo not drawn)	-15.5%
CCc1nnc(NC(=O)CSc2nnc(CNc3ccc(C)cc3)n2C)s1	19.2%
O=C(N/N=C\C=C\c1ccco1)c1cncc(Br)c1	-14.2%
COC(=O)c1cc(C(=O)OCC(=O)N(C)C2CCS(=O)(=O)C2)cc([N+](=O)[O-])c1 (stereo not drawn)	7.96%

Structure (SMILES)	hERG current change (%, negative = inhibition) at 10uM
Cc1ccccc1OCCN1C(=O)NC2(CCCc3ccccc32)C1=O (stereo not drawn)	-24.6%
Cc1cc(OCC(=O)O)c2c3c(c(=O)oc2c1)CCCC3	15.5%
N#Cc1ccc(NC(=O)c2nc(-c3ccccc3)n(-c3ccccc3)n2)cc1	-29%
Cc1nnc(SC(C)C(=O)Nc2nccs2)s1 (stereo not drawn)	33.3%
CCCn1c(C(O)c2ccc(OC)c(OC)c2)nc2ccccc21 (stereo not drawn)	6.88%
O=c1[nH]nc(SCCS(=O)(=O)c2ccc(F)cc2)n1-c1ccccc1	-0.412%
Cc1c(CN(C)C(=O)c2sc3cc(Cl)ccc3c2Cl)cnn1C	-46.5%
COc1ccc(CN2c3cc(S(=O)(=O)N4CCOCC4)ccc3N3CCCC32)cc1 (stereo not drawn)	-10.6%
COc1ccccc1N(C(C)=O)C1SC(=O)N(c2ccccc2)C1=O (stereo not drawn)	14%
O=C(Nc1cccc(S(=O)(=O)NC2=NCCC2)c1)c1cc(-c2ccco2)nc2ccccc12	7.49%
O=C(O)COc1ccc(/C=C2/SC(=S)N(Cc3ccccc3)C2=O)cc1	17.3%
O=C(Nc1ccc(N2CCCC2)cc1)c1cccc(F)c1	1.87%
CCn1c(CNC(=O)c2ccco2)nnc1SCC(=O)Nc1cc(F)ccc1C	-0.0602%
COc1ccc2nc(-n3c(O)c(C4=c5ccccc5=NC4=O)[nH]c3=S)sc2c1	5.96%
Cc1cc(C)n2c(SCCO)nnc2n1	14.9%
Cc1c(/C=N/NC(N)=O)c2ccccn2c1C(=O)c1ccc(F)cc1	-5.23%
CC1C(=O)N2CCCc3cc(NS(=O)(=O)c4ccccc4)cc1c32 (stereo not drawn)	3.76%
O=[N+]([O-])c1ccc(Nc2nc(N/N=C\c3ccc4c(c3)OCO4)nc(N3CCCCC3)n2)cc1	10.1%
Cc1ccc(SSc2cc(C)ccc2N)c(N)c1	15.3%
CC1=NN(c2ccc([N+](=O)[O-])cc2)C(=O)/C1=C\N(C)C	-7.37%
O=C1Nc2cc3c(cc2C1=O)sc1ccccc13	20.9%
